In patent US6323219A, “Methods for treating immunomediated inflammatory disorders” (Ortho-McNeil Pharmaceutical, Inc., priority 1999, dated 2001):

How the values were obtained:
Yucatan swine skin [1] = experiment: Electron microscopy of treated Yucatan swine skin; settings: eight weeks of treatment
Yucatan swine skin [2] = experiment: Yucatan swine skin pigmentation, topical, visual/chromameter/histology; settings: for histological repigmentation: F&M
Yucatan swine skin [3] = experiment: Histology of treated Yucatan swine skin (H&E, F&M); assay type: in vivo
[4] = test system: MelanoDerm human epidermal equivalents; experiment: Pigmentation of MelanoDerm epidermal equivalents (DOPA, H&E or F&M staining, image analysis); assay type: cell-based; settings: MelanoDerm, three days of treatment, stained on fourth day; FIG. 1B, FIG. 2, FIG. 3
MelanoDerm equivalents = experiment: Electron microscopy of MelanoDerm equivalents; assay type: cell-based, human

## CN[C@H](Cc1ccccc1)C(=O)N1CCC[C@H]1C(=O)N[C@@H](CCCNC(=N)N)C(=O)c1nc2ccccc2s1 [Compound I]
Yucatan swine skin [1]; compared to controls, FIGS. 11D, 11E, 11F
  melanosomes within keratinocytes: smaller and less pigmented
Yucatan swine skin [1]; compared to untreated controls, FIGS. 11G, 11H
  melanosome distribution in skin: abnormal
Yucatan swine skin [2]; 0, 10, 50 and 250 μM, FIG. 9
  chromameter readings (L*) during treatment course: A saturation effect is observed, which is a time and concentration dependent
Yucatan swine skin [2]; 250 μM, eight weeks
  permanent damage to pigmentation machinery: does not induce a permanent damage
Yucatan swine skin [2]; 250 μM, eight weeks, twice daily, five days a week, FIG. 12B
  depigmentation at end of treatment: All sites showed visible depigmentation
Yucatan swine skin [2]; 250 μM, eight weeks, four weeks after end of treatment, FIG. 12E
  histological repigmentation: fully repigmented
Yucatan swine skin [2]; 250 μM, eight weeks, one week post treatment
  histological repigmentation: repigmentation was demonstrated histologically
Yucatan swine skin [2]; 250 μM, eight weeks, visual, fourth week post treatment
  reversal of depigmenting effect: complete reversal
Yucatan swine skin [2]; 250 μM, eight weeks, visual, one and two weeks post treatment
  persistence of depigmenting effect after treatment: could be visualized at one and two weeks post treatment
Yucatan swine skin [2]; 50 and 250 μM, by the eighth week, FIG. 8
  whitening effect of the two highest doses compared: similar
Yucatan swine skin [3]; 10 μM, FIG. 10B
  F&M histology: pigmentation: reduced pigmentation
Yucatan swine skin [3]; 10, 50 and 250 μM, end of experiment
  H&E histology: irritation, inflammation, skin architecture: no irritation, inflammatory response or changes in skin architecture
Yucatan swine skin [3]; 10, 50 and 250 μM, end of experiment, FIG. 10
  F&M histology: pigmentation of treated samples: reduced pigmentation in the treated samples, both in the basal layer and throughout the epidermis
Yucatan swine skin [3]; 50 and 250 μM, FIGS. 10C, 10D
  F&M histology: pigmentation: lightest
[4]
  pigmentation/melanogenesis in epidermal equivalents: decreased pigmentation
MelanoDerm equivalents; FIG. 11C
  dendrites containing melanosomes within keratinocytes: easily identified within treated keratinocytes
MelanoDerm equivalents; relative to untreated controls, FIGS. 11A, 11B
  melanosome content and maturity within melanocytes: more melanosomes, but less mature melanosomes
